# Data: the supplement of paper PMC12217912
# This is one part of the list. The full chains were built here from the parent and the listed change. Inactive controls read about 0.05.
# B1: TEV protease; numbered along this chain (parent)
# chain: MGESLFKGPRDYNPISSSICHLTNESDGHTTSLYGIGFGPFIITNKHLFRRNNGTLVVQSLHGVFKVKDTTTLQQHLVDGRDMIIIRMPKDFPPFPQKLKFREPQREERICLVTTNFQTKSMSSMVSDTSCTFPSGDGIFWKHWIQTKDGQCGSPLVSTRDGFIVGIHSASNFTNTNNYFTSVPKNFMELLTNQEAQQWVSGWRLNADSVLWGGHKVFMVKPEEPFQPVKEATQL
# Variants of: B1
# Assay: raw area under fraction-flipped curve 0-4 h after induction (AUC4h, not background-subtracted), DNA-recorder readout of cleavage of the substrate (dimensionless); higher = more cleavage of the substrate by the protease variant
# Settings: temperature: 34 °C; time window: 0-4 h after rhamnose induction
# Procedure: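 In vivo DNA recorder in E. coli TOP10(DE3) ΔrhaA at 34 °C. Each TEVp single-site mutant (parent TEVp 0) is paired with a single-site variant of the 7-mer TEVs (canonical ENLYFQ|S). The substrate sits between flexible linkers in a Bxb1-sfGFP-TEVs-SsrA fusion, so cleavage stabilises Bxb1 and speeds flipping of a recombination array, read by NGS. The value is the raw area under the fraction-flipped curve over 0-4 h after rhamnose induction (AUC4h), with ≥20 reads per time point. It is not background-subtracted; inactive controls average about 0.047.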
# 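Further: Bxb1 expression induced with 0.2% (w/v) L-rhamnose at OD600 near 0.5, cultures sampled hourly, flipped fraction per protease–substrate barcode pair counted by paired-end Illumina sequencing.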
Variant,area with substrate ENLYFAS,area with substrate ENLYFES,area with substrate ENLYFFS,area with substrate ENLYFMS,area with substrate ENLYFSS,area with substrate ENLYFTS,area with substrate ENLYFVS,area with substrate ENLYFWS,area with substrate ENLYFYS,area with substrate ENLYFCS,area with substrate ENLYFDS,area with substrate ENLYFHS,area with substrate ENLYFKS,area with substrate ENLYFLS,area with substrate ENLYFNS,area with substrate ENLYFGS,area with substrate ENLYFIS,area with substrate ENLYFPS,area with substrate ENLYFRS
M88H,0.0421,0.0414,0.0434,0.0244,0.0504,0.0471,0.0256,0.0365,0.0448,,,,,,,,,,
M88W,0.0488,0.0676,0.0607,0.0608,,0.0574,,0.0453,0.0365,0.0525,0.0817,0.056,0.0502,0.0601,0.0611,,,,
M88G,0.0466,0.0662,0.0575,0.0403,0.0409,0.0494,,0.0432,,0.0567,,0.0383,0.0398,,,0.0443,0.0515,0.0571,0.0505
M88C,0.0409,,0.125,0.0671,,,,,0.0701,0.0504,,,,,,,0.0538,,0.0521
M88E,0.0337,0.0453,0.0581,0.0859,,0.056,,0.0596,,,,,0.0636,0.0567,0.0403,,0.0646,0.0481,
P104L,0.0425,0.0428,0.0415,0.0515,0.0534,0.0396,0.0608,0.0512,0.0584,0.0547,0.0566,0.0561,,0.0517,0.0533,0.0552,0.0451,0.0535,0.0272
P104W,0.0515,0.0423,0.0577,0.0475,0.0506,,0.0286,,0.0552,0.0503,0.0575,0.0399,0.0589,0.0366,0.057,0.0431,0.0485,0.0429,0.0668
P104M,0.048,0.0636,,0.0489,0.069,0.0503,,0.054,0.0571,0.0604,0.0473,,0.065,0.0426,0.0565,,0.0468,0.0499,0.05
P104F,0.0584,,0.064,0.0583,,0.0465,,0.0683,0.0599,,,,0.0402,,,,,,
P104I,0.0468,0.0525,0.0575,0.0515,0.0472,0.0485,0.0399,0.0625,0.0451,0.0566,0.045,0.0633,0.0581,,0.0587,0.056,0.0551,0.0547,0.0491
L112H,0.0546,0.0664,0.0729,0.0601,0.0642,0.0596,0.03,,,,0.0642,0.0812,,,0.0694,,0.0572,0.0622,0.0662
L112N,0.0604,0.0619,0.0647,0.0586,,0.0574,0.048,0.0514,0.053,0.0559,,0.0706,0.042,0.0425,0.0582,0.0533,0.0473,0.0615,0.0527
L112Q,0.0374,0.0702,,0.0584,0.0405,0.0478,0.0627,,0.072,0.0666,0.0615,,0.0586,0.0613,0.0434,,0.0497,0.063,0.0736
L112C,0.06,0.0654,0.0652,0.0673,,0.062,,0.0518,0.0465,0.0578,0.0655,,0.0619,,0.0524,,0.0588,0.0476,0.0564
L112F,0.0518,0.0611,0.0681,0.077,0.0552,0.0399,0.0598,0.0629,,0.0626,,,,,0.0496,,,0.0606,
L112I,0.0842,0.0626,0.0686,0.0385,,0.0599,0.0831,,,0.0587,0.0585,,0.0543,,,0.0589,0.0501,,0.066
T72R,0.0548,,0.0768,0.0619,0.0545,,,0.0614,,0.0533,0.0643,0.0532,,0.0493,0.074,,0.0534,0.0617,
T72N,0.0615,,0.0685,0.0681,0.0585,0.0549,,0.0581,0.0516,,0.0622,0.055,0.0508,,0.0711,0.0637,0.0582,,0.0506
T72V,0.0611,0.0654,0.0705,0.0639,0.0485,0.0592,0.0197,,0.068,,0.077,,0.0577,0.0559,0.0604,,0.0476,0.0582,
T72S,0.0414,,0.0687,0.0689,0.0569,0.0522,,0.0402,,0.0568,0.0552,0.0638,0.0454,0.0531,0.0616,,0.0554,0.055,
T72C,0.057,0.0579,0.0687,0.0682,,0.0556,0.0586,,,0.0583,,,0.0696,,0.0639,,0.0561,0.0557,0.0607
T72A,0.0486,0.0732,,0.0817,0.0649,0.0538,,,0.0581,,0.0489,0.0694,0.0515,0.0649,,0.0734,0.0524,,0.0571
T72H,0.058,0.0556,0.108,0.0681,0.0536,0.0454,0.0624,0.0548,,0.0564,,0.0593,,0.0554,0.0659,,0.0579,0.0513,0.048
P96V,0.057,0.0625,0.0641,0.0634,,0.0438,0.0622,0.0477,0.0723,0.0643,0.0717,0.0643,0.0709,0.0596,0.0582,0.0665,0.0465,0.0545,0.0554
P96Y,0.054,,0.021,0.0626,0.0794,0.0616,,0.0683,,0.0546,,,,,0.0644,,,0.0429,0.0537
P96K,0.0715,0.0918,0.0685,0.0696,,0.0445,,,0.0549,0.0662,,,,,0.0505,0.069,0.0542,0.0493,0.0346
